Consider 1 molecule from patent US20230242645A1 (WUXI BIOLOGICS SHANGHAI, published 2023).

The target of assay [1] is T1, human VEGF (WBP325-hPro1, Sino Biological, 11066-HNAB) (human, UniProt P15692-4 27-191).
T1 construct: Bought protein; also called antigen-1
T1 sequence (looked up): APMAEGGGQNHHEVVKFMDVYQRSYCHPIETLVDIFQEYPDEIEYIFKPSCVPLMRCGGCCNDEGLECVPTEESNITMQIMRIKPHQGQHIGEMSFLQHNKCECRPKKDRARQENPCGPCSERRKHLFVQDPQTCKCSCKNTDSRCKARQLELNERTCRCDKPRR
As to the kind of experiment: ELISA, plate coated with 0.25 µg/ml human VEGF. In general terms: In an ELISA, binding on a coated surface is turned into a signal by an enzyme label.

In assay [2] the target is T1, human VEGF (WBP325-hPro1, Sino …). As to the kind of experiment: cell-based or functional assay.
Assay [3] has the same target. The experiment in a line: dual binding ELISA: antibody titrated on coated human VEGF, signal from biotinylated PD-L1.ECD.mFc at 0.5 ug/ml (needs both arms).
The target in assay [4] is T2, human PD-L1 extracellular domain, mouse Fc (PD-L1.ECD.mFc, W3153-hPro1.ECD.mFc) (human, UniProt Q9NZQ7 partial chain).
T2 construct: extracellular domain; also called WBP315-hPro1.ECD.mFc; antigen-2; not shown: mouse Fc tag at the C-terminus
As to the kind of experiment: dual binding ELISA: antibody titrated on coated PD-L1.ECD.mFc, signal from biotinylated human VEGF (his) at 0.5 ug/ml (needs both arms).

Assay [5] concerns the target T3, human PD-L1 extracellular domain, his tag (W315-hPro1.ECD.his) (human, UniProt Q9NZQ7 partial chain).
T3 construct: extracellular domain; Analyte in SPR; also called W315-hPro1.ECD.his (PD-L1); ECD of PD-L1; not shown: C-terminal his tag (6xhis)
As to the kind of experiment: SPR (Biacore T200), antibody captured on anti-human Fc, antigen as analyte, 25 °C. On the procedure: (§1) Biacore T200, Series S Sensor Chip CM5, Amine Coupling Kit, and 10×HBS-EP were purchased from GE Healthcare. The antibody was captured onto the anti-human Fc IgG (Jackson, 109-005-098) surface immobilized on CM5-biosensor chip (GE Healthcare Inc.). The assay was performed at 25° C. with HBS-EP+ buffer (GE Healthcare Inc.) as running and dilution buffer. Serially diluted PD-L1 antigen or VEGF antigen (W315-hPro1.ECD.his or W325-hPro1.his) and running buffer were injected for an association phase and followed dissociation phase detection. Regeneration of the chip surface was reached by an injection of 10 mM Glycine, pH 1.5.
(§2) The on-rate constant (ka) and off-rate constant (kd) were also measured in the mean time. Final data of each interaction was deducted from reference channel and buffer channel data.
Background: SPR reads the build-up and loss of mass on a sensor chip optically.

Assay [6] has as its target T4, human VEGF, his tag (W325-hPro1.his) (human, UniProt P15692-4 27-191, limits assumed).
T4 construct: Analyte in SPR; also called WBP325-hPro1. his; W325-hPro1.ECD.his (VEGF); not shown: C-terminal his tag (6xhis)
T4 sequence (looked up): T1 sequence (looked up)
The description is as above. As for the experimental part: as §1, §2

For assay [7], the target named is T5, human PD-L1 on CHO-K1 cells (WBP315.CHO-K1.hPro1.C11) (human, UniProt Q9NZQ7).
T5 construct: whole, on cells; also called engineered human PD-L1 expressing cells
The experiment in a line: flow cytometry on human PD-L1 expressing CHO-K1 cells. On the procedure:
Engineered human PD-L1 expressing cells (WBP315.CHO-K1.hPro1.C11) were seeded at 1×10⁵ cells/well in U-bottom 96-well plates. […] UIgG1 was added to the cells. Plates were incubated at 4° C. for 1 hour. After wash, FITC-labeled goat anti-human IgG (Jackson ImmunoResearch, 109-095-008) was added to each well and the plates were incubated at 4° C. for 1 hour. The binding of the antibodies onto the cells was tested by flow cytometry and the mean fluorescence intensity (MFI) was analyzed by FlowJo.
In general terms: In flow cytometry, cells or beads pass a laser one at a time.

B1: W3256-U15T2.G6-1.uIgG1 (bispecific antibody)
heavy: EVQLVESGGGLVQPGGSLRLSCAASGYTFTNYGMNWVRQAPGKGLEWVGWINTYTGEPTYAADFKRRFTFSLDTSKSTAYLQMNSLRAEDTAVYYCAKYPHYYGSSHWYFDVWGQGTLVTVSSASTKGPSVFPLAPSSKSTSGGTAALGCLVKDYFPEPVTVSWNSGALTSGVHTFPAVLQSSGLYSLSSVVTVPSSSLGTQTYICNVNHKPSNTKVDKRV[skipping human IgG1 Fc]
light: EVQLVESGGGLVQPGGSLRLSCAASGHFSNLAVNWFRQAPGKERELVAGILWSGGSTFYADSVKGRFTISRGNAENMLYLQMNSLRAEDTAVYYCNTGTNWGQGTLVTVSSGGGGSGGGGSDIQMTQSPSSLSASVGDRVTITCSASQDISNYLNWYQQKPGKAPKVLIYFTSSLHSGVPSRFSGSGSGTDFTLTISSLQPEDFATYYCQQYSTVPWTFGQGTKVEIKRTVAAPSVFIFPPSDEQLKSGTASVVCLLNNFYPREAKVQWKVDNALQSGNSQESVTEQDSKDSTYSLSSTLTLSKADYEKHKVYACEVTHQGLSSPVTKSFNRGEC
notes: Anti-VEGF x anti-PD-L1 bispecific antibody; the VHH is fused to the N-terminus of the light chain of Bevacizumab; human IgG1; also called W3256 antibody
For orientation: EC50 means the midpoint of the concentration-response curve. A higher EC50 goes with weaker potency. The term EC50 (read off the curve) denotes the concentration giving half of the maximal effect. Read a low EC50 (read off the curve) as an effect from little substance. In general, Kd refers to the concentration at which binding is half-saturated. Read a low Kd as tighter binding. By koff is commonly meant the first-order rate constant of dissociation. A word on the kon: it is the second-order rate constant of association. A low value points to slow association. For the molecule B1, the EC50 was approximately 0.095 nM in assay [1] and approximately 0.128 nM in assay [7]. Moreover, the “IC50 of inhibition of VEGF-induced HUVEC proliferation (CellTiter Glo)” value in assay [2] was approximately 12 nM. Moreover, the entries for the “EC50 (read off the curve)” value in assay [3] and in assay [4] were approximately 0.2 nM and approximately 0.1 nM, respectively. In addition, the Kd was 0.155 nM in assay [5] and 0.0153 nM in assay [6]. In addition, the values for the koff in assay [5] and in assay [6] were 0.000333 s⁻¹ and 3.64e-05 s⁻¹, respectively. The kon came to 2.14e+06 M⁻¹ s⁻¹ in assay [5] and 2.38e+06 M⁻¹ s⁻¹ in assay [6].
